Test results reported in PMC4336329 (PLoS ONE, 2015).
The campaign covered roughly 310,000 compounds. About 14,000 (4.5%) showed an effect of 50% or more. Effects have a minus sign here. The list shows a part of the results.
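Also: peak tail current of the secondary pulse compared with the same well before compound.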

The compounds below were run against human ether-à-go-go-related gene (hERG) potassium channel (human, UniProt Q12809) (assay: primary screen, population patch clamp on CHO cells stably expressing hERG).
Sequence of human ether-à-go-go-related gene (hERG) potassium channel (Q12809 whole entry, looked up): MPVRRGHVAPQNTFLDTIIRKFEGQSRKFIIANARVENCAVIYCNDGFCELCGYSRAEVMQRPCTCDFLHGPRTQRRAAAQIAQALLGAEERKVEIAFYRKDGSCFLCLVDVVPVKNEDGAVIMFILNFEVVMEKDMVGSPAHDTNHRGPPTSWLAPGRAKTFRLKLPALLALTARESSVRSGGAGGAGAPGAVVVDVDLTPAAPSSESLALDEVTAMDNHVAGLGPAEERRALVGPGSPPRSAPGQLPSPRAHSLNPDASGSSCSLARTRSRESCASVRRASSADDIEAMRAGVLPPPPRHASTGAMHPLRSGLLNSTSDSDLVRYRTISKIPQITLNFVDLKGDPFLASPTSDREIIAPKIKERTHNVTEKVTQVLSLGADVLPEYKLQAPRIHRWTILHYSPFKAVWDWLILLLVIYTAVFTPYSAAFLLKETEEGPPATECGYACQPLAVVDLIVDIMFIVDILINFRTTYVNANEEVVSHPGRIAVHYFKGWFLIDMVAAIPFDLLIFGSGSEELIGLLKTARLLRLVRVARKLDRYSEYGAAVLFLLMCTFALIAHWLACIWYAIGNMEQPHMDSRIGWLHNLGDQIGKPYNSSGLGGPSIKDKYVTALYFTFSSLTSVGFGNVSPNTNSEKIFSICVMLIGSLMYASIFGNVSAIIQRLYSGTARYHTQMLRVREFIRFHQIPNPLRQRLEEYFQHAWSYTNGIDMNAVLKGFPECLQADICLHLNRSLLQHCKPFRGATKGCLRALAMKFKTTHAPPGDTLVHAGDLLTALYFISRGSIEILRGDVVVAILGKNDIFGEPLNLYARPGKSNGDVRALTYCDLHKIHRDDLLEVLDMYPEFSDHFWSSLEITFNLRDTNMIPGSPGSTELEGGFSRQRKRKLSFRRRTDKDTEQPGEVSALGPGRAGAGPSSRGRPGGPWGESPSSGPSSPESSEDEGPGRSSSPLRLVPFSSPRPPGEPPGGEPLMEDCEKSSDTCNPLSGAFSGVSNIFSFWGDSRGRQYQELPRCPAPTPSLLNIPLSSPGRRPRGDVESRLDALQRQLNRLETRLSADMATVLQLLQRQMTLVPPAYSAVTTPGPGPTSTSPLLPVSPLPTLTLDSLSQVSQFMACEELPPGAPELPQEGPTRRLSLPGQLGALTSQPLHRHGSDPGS
With `COc1ccc(Sc2nnc(Cc3ccccc3)c3ccccc23)cc1` the “hERG current change (%, negative = inhibition) at 10uM” value was -18%. With `CCOc1ccc2oc(=O)cc(CN3CCN(Cc4ccccc4)CC3)c2c1` the “hERG current change (%, negative = inhibition) at 10uM” value was -56.7%. `O=C(CNc1ccccc1)NNC1=NCCC1` was tested, and the “hERG current change (%, negative = inhibition) at 10uM” value was -3.9%. `COc1ccc(N(CC(=O)Nc2ccc3c(c2)OCCO3)S(=O)(=O)c2c(C)nn(C)c2C)cc1` was tested, and the “hERG current change (%, negative = inhibition) at 10uM” value was -9.16%. `COc1cc(/C=C(/NC(=O)c2ccccc2)C(=O)Nc2ccc(O)cc2)c([N+](=O)[O-])cc1OC` was tested, and the “hERG current change (%, negative = inhibition) at 10uM” value was 9.25%. For `Cn1ncc(Br)c1C(=O)NC1CCCC1`, the “hERG current change (%, negative = inhibition) at 10uM” value was 24.1%. For `COC(=O)C1=C(c2cccc(OC)c2OC)C[C@@H]2CC[C@H]1N2C(=O)N1CCCCC1`, the “hERG current change (%, negative = inhibition) at 10uM” value was 2.54%. In the case of `O=C(CN1C(=O)c2cccc3cccc1c23)NCc1ccccn1`, the “hERG current change (%, negative = inhibition) at 10uM” value is reported as 17.9%. For `CCNC(=O)c1cccc(NC(=O)C2CC(=O)N(CCc3ccccc3)C2)c1` (stereo not drawn), the “hERG current change (%, negative = inhibition) at 10uM” value was 9.05%. `COc1ccc(C(=O)NC(=S)Nc2cccc(S(=O)(=O)N3CCOCC3)c2)cc1` was tested, and the “hERG current change (%, negative = inhibition) at 10uM” value was -5.04%. In the case of `Cc1cccc(NC(=O)C2SC(=Nc3c(C)cccc3C)C(C(=O)N3CCOCC3)=C2N)c1` (stereo not drawn), the “hERG current change (%, negative = inhibition) at 10uM” value is reported as 0.733%. `COc1cc(Nc2ncnc(N)n2)cc(OC)c1OC` was tested, and the “hERG current change (%, negative = inhibition) at 10uM” value was 11%. For `CC(=O)OCC(=O)Nc1ccc(C(C)=O)cc1`, the “hERG current change (%, negative = inhibition) at 10uM” value was -1.86%. In the case of `Cc1cccc(NC2=NCC(=O)N2CCc2ccccc2)c1`, the “hERG current change (%, negative = inhibition) at 10uM” value is reported as -13.2%. In the case of `O=C(O)/C=C/C(=O)N(Cc1ccc2c(c1)OCO2)C1CC(=O)N(CCc2ccccc2)C1=O` (stereo not drawn), the “hERG current change (%, negative = inhibition) at 10uM” value is reported as 36.5%. In the case of `Cc1sc2ncn(CC(=O)NCC3COc4ccccc4O3)c(=O)c2c1S(=O)(=O)N1CCCCC1` (stereo not drawn), the “hERG current change (%, negative = inhibition) at 10uM” value is reported as 14.5%. With `CCOc1ccccc1N1CCN(C(=O)C2=CC=CN3CCS(=O)(=O)N=C23)CC1` the “hERG current change (%, negative = inhibition) at 10uM” value was -1.4%. In the case of `NC(=O)CSc1ncnc2c1oc1ccccc12`, the “hERG current change (%, negative = inhibition) at 10uM” value is reported as 10.4%. For `O=C(NCCCn1ccnc1)c1cccc(Cl)c1`, the “hERG current change (%, negative = inhibition) at 10uM” value was 0.459%. `COc1ccc(NC(=O)c2c(C(F)(F)F)nn(C)c2SCc2ccccc2)cc1` was tested, and the “hERG current change (%, negative = inhibition) at 10uM” value was -17.2%. `O=C1c2ccccc2C(=O)N1CSc1nnc(Nc2ccccc2F)s1` was tested, and the “hERG current change (%, negative = inhibition) at 10uM” value was 2.69%. With `CCc1c(C)[nH]n(-c2nc(-c3cccc([N+](=O)[O-])c3)cs2)c1=O` the “hERG current change (%, negative = inhibition) at 10uM” value was 11.7%. In the case of `O=C(O)c1ccccc1NC(=O)C1C2CCC(O2)C1C(=O)O` (stereo not drawn), the “hERG current change (%, negative = inhibition) at 10uM” value is reported as -1.25%. With `CCc1nc2ccc(C(=O)N(C)CC(=O)Nc3ccc(Cl)c(C(F)(F)F)c3)cc2nc1CC` the “hERG current change (%, negative = inhibition) at 10uM” value was -7.12%.
